From PubChem BioAssay AID1347073 (National Center for Advancing Translational Sciences (NCATS), 2019)
Screen size: about 45,000 compounds; about 200 (0.44%) were called active. About 7% were inconclusive and are not listed. Calls come from the whole dose curve; as a rule, active = well fitted activation curve with a large enough effect; inconclusive = small, poorly fitted or top-dose-only effect; inactive = no such curve, though single readings can be large or run the other way. Some of the results follow.

Experiment: qHTS of TDP-43 Inhibitors: NCGC Sytravon Library Screen; note: 0% is about no effect; nearly all actives have a fitted effect of over 55% in size
Settings: yeast TDP-43 toxicity rescue, BacTiter-Glo growth, 24 h; series mostly up to 46.1 µM; growth rescue (activation): at the top concentration
Outline: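 TDP-43-expressing yeast, pregrown in raffinose, seeded at OD600 0.02 in galactose medium with compound for 24 hr at 30 deg C. Growth read by BacTiter-Glo luminescence, so rescue of toxicity appears as activation.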

| SMILES | growth rescue (activation) |
| --- | --- |
| Cn1c(=O)c2c(nc(NCc3ccco3)n2Cc2ccccc2Cl)n(C)c1=O | inactive: 13.9% |
| Cc1noc(C)c1S(=O)(=O)N1CCN(S(=O)(=O)c2ccccc2C#N)CC1 | inactive: 7.32% |
| Cc1ccn(S(=O)(=O)c2ccc(N3CCCC3=O)cc2)n1 | inactive: -3.79% |
| Cc1cc(NCCc2ccc(Cl)cc2)n2ncnc2n1 | inactive: 5.04% |
| Cc1ccc(N2CC(C(=O)Nc3ccc(S(=O)(=O)N4CCCC4)cc3)CC2=O)cc1C (stereo not drawn) | inactive: 0.594% |
| CC12CCC(C(=O)O)(c3nc4cc([N+](=O)[O-])ccc4nc31)C2(C)C (stereo not drawn) | inactive: 29.4% |
| CC(C)NC(=S)NCc1cccnc1 | inactive: 10.2% |
| O=C(CCN1C(=O)/C(=C\c2ccccc2)SC1=S)Nc1ccc(C(=O)O)cc1 | inactive: 10.9% |
| NS(=O)(=O)c1ccc(CCNC(=O)COC(=O)CC(c2ccccc2)c2ccccc2)cc1 | inactive: -5.11% |
| CC(C)C(=O)N1CCN(c2ccc(NC(=O)c3ccco3)cc2Cl)CC1 | inactive: 5.11% |
| Cc1ccc(Cl)cc1N(CC(=O)NC(C)c1ccccc1)S(C)(=O)=O (stereo not drawn) | inactive: 13.3% |
| CC(C)Oc1ccccc1NC(=O)CSc1nccn1C | inactive: -2.13% |
| Cc1ccc(-n2cc(CNCCc3ncc(C)[nH]3)c(-c3ccc(F)cc3)n2)cc1 | inactive: -5.04% |
| O=S(=O)(Cc1c(F)cccc1Cl)c1ncn[nH]1 | inactive: -2.33% |
| CCOCCCNS(=O)(=O)c1ccc(NC(=O)C2CC(=O)N(c3ccc(C)cc3)C2)cc1 (stereo not drawn) | inactive: 14.4% |
| COc1ccc(CCNC(=O)c2ccc3c(c2)OCCO3)cc1 | inactive: 5.12% |
| O=C(CSc1ccc(C(F)(F)F)cc1[N+](=O)[O-])Nc1ccc2ccccc2c1 | inactive: 19% |
| CCOc1ccccc1OCC(=O)NCCc1ccc(S(N)(=O)=O)cc1 | inactive: -2.22% |
| Cc1cc(C)cc(C(=O)Nc2nc3ccccc3[nH]2)c1 | inactive: 4.72% |
| CN1\C(=C/C=C/C=C/C=[N+](C)C)C(C)(C)c2ccccc21 | inactive: -31.5% |
| CCOc1ccc(C)cc1S(=O)(=O)n1nc(C)cc1C | inactive: 27.6% |
| O=C(NCc1ccco1)c1ccc2c(c1)N(Cc1ccc(F)cc1)C(=O)c1ccccc1S2(=O)=O | inactive: 10.1% |

| SMILES | growth rescue (activation) |
| --- | --- |
| Cc1nn(C)c(C)c1NC(=O)COc1ccc(F)cc1Br | inactive: 10.5% |
| CC(C)Oc1cc(F)ccc1-c1cc(C(=O)Nc2ccc(F)cc2)[nH]n1 | inactive: 7.55% |
| COc1cc(/C=N/NC(=S)Nc2cccc(C(=O)O)c2)ccc1O | inactive: 6.17% |
| CCN(CC)c1ccc(/C=C/C(=O)C2C(=O)C=C(C)OC2=O)cc1 (stereo not drawn) | inactive: -5.26% |
| O=S(=O)(Nc1ccccc1O)c1ccc(-c2ccccc2)cc1 | inactive: 10.3% |
| COc1ccc(CCNC(=S)NC2CCN(Cc3ccccc3)CC2)cc1OC | inactive: -0.0932% |
| CSc1ncc(C(=O)Nc2ccc(C)cc2C)c(C)n1 | inactive: -16.1% |
| CC(=O)NN1C(=O)/C(=C\c2ccc(O)cc2)SC1=S | inactive: -32.8% |
| O=C(Oc1ccc2ccc(=O)oc2c1)c1cccs1 | inactive: -0.943% |
| COc1ccc(/C=N/OCC(=O)N=Nc2c(O)[nH]c3ccc(Br)cc23)cc1OC | inactive: 9.32% |
| COc1ccc(CC(=O)N/N=C/C=C/c2cccc([N+](=O)[O-])c2)cc1OC | inactive: 13.3% |
| Cc1ccc(C(O)c2ncc(-c3ccc(F)cc3)[nH]2)c(C)c1 (stereo not drawn) | inactive: 15.5% |
| CC(Oc1cccnc1[N+](=O)[O-])C(=O)N1CCc2ccccc21 (stereo not drawn) | inactive: -6.76% |
| CC(=O)NCCNc1nc2cc(-c3cnn(CCC(C)C)c3)sc2c(=O)n1C | inactive: 10.9% |
| O=C(NCc1cccnc1)c1ccc(Cl)c(S(=O)(=O)N2CCOCC2)c1 | inactive: 12.4% |
| FC(F)(F)c1cccc(Cc2noc(CN3CCCCC3c3ccccn3)n2)c1 (stereo not drawn) | inactive: 9.67% |
| O=C(NN1CCOCC1)c1ccccc1Br | inactive: 3.36% |
| COc1ccc(NC(C)c2ccccc2)cc1 (stereo not drawn) | inactive: 0.904% |
| COC(=O)c1sc(S(=O)(=O)N2CCN(CCO)CC2)c(C(=O)OC)c1C | inactive: -0.318% |
| Cn1c(=O)c2cc(NC(=S)NC3CC3)ccc2n1Cc1ccc(F)cc1 | inactive: 6.87% |
| O=C(Nc1ccc(N2CCCC2)cc1)C(Cl)c1ccccc1 (stereo not drawn) | inactive: 5.75% |
| O=C(NN1CCOCC1)c1cc(S(=O)(=O)Nc2cccc(C(F)(F)F)c2)ccc1Cl | inactive: -3.91% |

| SMILES | growth rescue (activation) |
| --- | --- |
| CN1C(=O)/C(=C/c2ccc3c(c2)OCO3)N=C1c1ccccc1 | inactive: 11% |
| C=CCn1c(SCC(=O)NC2CCCC2)nnc1-c1ccccn1 | inactive: -13.9% |
| O=C(N/N=C/c1ccccc1F)NC1CCCCC1 | inactive: 15.9% |
| CCN1CCN(CC(=O)N/N=C/c2ccc(F)cc2F)CC1 | inactive: 9.23% |
| CC1=CC(C)(C)N(C(=O)CSc2nnc(N)s2)c2ccccc21 | inactive: -1.19% |
| Cc1ccc2cc(CCNS(=O)(=O)c3ccc(Cl)cc3)c(=O)[nH]c2c1C | inactive: 7.83% |
| CCC(Oc1ccccc1)C(=O)Nc1ccc(S(=O)(=O)Nc2cc(C)on2)cc1 (stereo not drawn) | inactive: 2.23% |
| Cc1cc(=O)[nH]c(SCC(=O)Nc2nc(-c3ccccc3)c(-c3ccccc3)o2)n1 | inactive: 10.3% |
| O=C1OC(c2ccccc2)/C(=C(/O)c2ccccc2)C1=O (stereo not drawn) | inactive: -33.3% |
| Nc1ccc(Cl)cc1C(=O)OCC(=O)NC1CCS(=O)(=O)C1 (stereo not drawn) | inactive: -8.94% |
| Cc1ccc(S(=O)(=O)c2ccc(-n3nc(C)cc3N)cc2)cc1 | inactive: 1.67% |
| OCCN1CCN(c2nccn3ccnc23)CC1 | inactive: 5.53% |
| O=C(Nc1ccc(Br)cn1)c1ccc([N+](=O)[O-])cc1Cl | inactive: 23.4% |
| COc1ccc(OC)c(Cc2nnc(CCC(=O)NCc3nc4ccccc4s3)o2)c1 | inactive: 3.99% |
| COCCNCCOc1ccc(C)cc1[N+](=O)[O-] | inactive: 8.54% |
| CC1CCN(C(=O)COC(=O)c2ccccc2C(=O)c2ccccc2)CC1 | inactive: 29% |
| O=C(NCCCNC(=O)c1cc(Cl)ccc1Cl)c1cnccn1 | inactive: 9.39% |
| C/C(N)=C(/C#N)C(=O)COC(=O)c1cc(-c2ccc(C)cc2)nc2ccccc12 | inactive: 12.1% |
| CC(C)CC(OC(=O)c1ccco1)C(=O)NC1CCCCC1 (stereo not drawn) | inactive: 22% |
| COc1ccc(OCCN2CCN(C(=O)c3ccc(OC)c(OC)c3)CC2)cc1 | inactive: -5.13% |
| O=C(NCCCN1CCCCCC1)c1ccc2c(c1)NC(=O)C(N1CCOCC1)S2 (stereo not drawn) | inactive: 8.33% |
| COc1ccccc1Cn1c(=S)[nH]c2ccccc2c1=O | inactive: 15.9% |

| SMILES | growth rescue (activation) |
| --- | --- |
| C=CCc1ccccc1OCCSc1nc2ccc([N+](=O)[O-])cc2s1 | inactive: 10.8% |
| C=C(C)COc1ccc2c(CC)cc(=O)oc2c1C | inactive: 6.07% |
| COc1ccc(NCc2nnc(SCC(=O)Nc3nc(-c4ccccc4)cs3)n2-c2ccccc2)cc1 | inactive: 13.4% |
| CCN1CCN(C(=S)c2ccc(OCC(=O)NCc3ccccc3)cc2)CC1 | inactive: 6.54% |
| C/C(=N/NC(=O)c1cc(C)[nH]n1)c1ccco1 | inactive: -1.97% |
| O=C(NCCc1cnn(-c2ccccc2)c1)c1cc(COc2c(F)cccc2F)on1 | inactive: 0.113% |
| O=C(Nc1ccc(F)c(Cl)c1)Nc1nnc([C@@H]2O[C@H](CO)[C@@H](O)[C@H]2O)s1 | inactive: 2.98% |
| CN(C)/C=N/n1cnc2ccccc2c1=O | inactive: -6.78% |
| O=S(=O)(Nc1cccc(S(=O)(=O)N2CCCCC2)c1)c1ccccc1F | inactive: -14.6% |
| CC(C)NC(=O)c1cc(C2CCCCN2S(=O)(=O)c2ccc(C#N)cc2)on1 (stereo not drawn) | inactive: 14.2% |
| Cc1cc(C)cc(NC(=O)C(OC(=O)c2ccc([N+](=O)[O-])o2)c2ccccc2)c1 (stereo not drawn) | inactive: 8.94% |
| CCCn1c(N)c(N(CCOC)C(=O)c2cc3c(s2)CCC(CC)C3)c(=O)[nH]c1=O (stereo not drawn) | inactive: 17.3% |
| CCn1c(CC(=O)Nc2ccccc2Cl)nnc1SCC(=O)NC1CCCC1 | inactive: 14% |
| COc1ccc(CCNC(=O)CN2C(=O)NC3(CCCCC3C)C2=O)cc1 (stereo not drawn) | inactive: 3.72% |
| Cc1ccc2nc3c(c(N)c2c1)CCN3C | inactive: -4.4% |
| COc1ccc(-c2nnn(CC(=O)N(CCCN3CCOCC3)C(C(=O)NC3CCCC3)c3ccc(C)o3)n2)cc1 (stereo not drawn) | inactive: 0.139% |
| CN(C)c1cccc(C(=O)NCc2ccc3c(c2)OCO3)c1 | inactive: 11.7% |
| CC(C)C(NC(=O)c1ccccc1F)C(=O)Nc1ccc2c(c1)OCO2 (stereo not drawn) | inactive: 12.8% |
| COc1cc(C2C(C(=O)c3ccco3)=C(O)C(=O)N2CC2CCCO2)ccc1O (stereo not drawn) | inactive: -3.48% |
| CCc1nnc(NC(=O)c2ccc(S(=O)(=O)N3CCCC(C)C3)cc2)s1 (stereo not drawn) | inactive: 4.19% |
| Cc1ccc2c(c1)c1c(n2CC(O)CN2CCCCCC2)CCCC1 (stereo not drawn) | inactive: -11.3% |
| CC1(C)CC2CC(C)(CN2C(=O)c2cc(-c3ccc(F)cc3)on2)C1 (stereo not drawn) | inactive: 4.81% |

| SMILES | growth rescue (activation) |
| --- | --- |
| O=C(CCc1ccc(O)c(O)c1)NNC(=S)NCCc1ccccc1 | inactive: 3.4% |
| Cc1cc(C(=O)N2CCC2(C)C(=O)Nc2ccc3[nH]ncc3c2)nn1C (stereo not drawn) | inactive: -7.77% |
| CS(=O)(=O)N1CCCC(C(=O)Nc2ccc(Br)cc2F)C1 (stereo not drawn) | inactive: -2.51% |
| Cc1cc(S(=O)(=O)Nc2cccc(C(=O)O)c2)c(C)c(S(=O)(=O)c2ccc(Cl)cc2)c1 | inactive: 8.34% |
| S=C(Nc1ccccc1Cl)N1CCN(Cc2ccccc2)CC1 | inactive: 10.9% |
| Cc1ccsc1C(C(=O)NCc1ccccc1)N(C(=O)c1csnn1)c1ccccc1 (stereo not drawn) | inactive: -3.37% |
| CCCn1nc(C(=O)Nc2nc3ccccc3[nH]2)c2ccccc2c1=O | inactive: -8.38% |
| CNC(=O)C1Cc2c(-c3ccccc3Oc3ccccc3)ccnc2O1 (stereo not drawn) | inactive: 1.24% |
| Cc1ccnc(NC(=O)CCCOc2ccccc2)c1 | inactive: 8.76% |
| COC(=O)C1=C(C)N(c2ccc(OC)cc2)C(=O)/C1=C\c1cccs1 | inactive: 15.6% |
| CS(=O)(=O)c1ccc(C(=O)N2CCN(S(=O)(=O)c3ccc(C4CCCCC4)cc3)CC2)cc1 | inactive: 3.94% |
| COc1cccc(CN(CC(=O)NC2CCCCC2)C(=O)c2csnn2)c1 | inactive: -15.9% |
| CCC1OC2(C)OC(=N)C1(C#N)C(C#N)(C#N)C2c1ccccc1 (stereo not drawn) | inactive: 6.05% |
| O=C(Nc1nccs1)c1csc([C@H]2C[C@H](O)[C@@H](CO)O2)n1 | inactive: 25.3% |
| CC1=C(C(=O)Nc2ccc(F)c(F)c2)C(c2cccs2)NC(=S)N1 (stereo not drawn) | inactive: 19.4% |
| O=S(=O)(/N=C(/Nc1ccc(F)cc1F)c1ccccc1)c1ccccc1 | inactive: 22.1% |
| O=C(Nc1ccccc1C(=O)O)c1cc(S(=O)(=O)NCc2ccccc2)ccc1Cl | inactive: -3.78% |
| COc1ccc(OCC(=O)N/N=C/C=C/c2ccccc2)cc1 | inactive: 25.1% |
| Cc1c(C=O)c2ccccc2n1CC(=O)NC(C)c1ccccc1 (stereo not drawn) | inactive: 2.37% |
| Cc1ccsc1CN(C)CC(=O)Nc1ccc([N+](=O)[O-])cc1Cl | inactive: -6.77% |
